Test results reported in PubChem BioAssay AID1347073 (National Center for Advancing Translational Sciences (NCATS), 2019).
Out of some 45,000 compounds screened, about 200 (0.44%) were called active. The inconclusive results got no clear call from the source; some entries with a clear call stand among them for comparison. Calls follow the shape of the dose curve; as a rule, active = well fitted activation curve with a large enough effect; inconclusive = small, poorly fitted or top-dose-only effect; inactive = no such curve, though single readings can be large or run the other way. Where the call is inconclusive, the potency comes from a doubtful curve fit.

assay: qHTS of TDP-43 Inhibitors: NCGC Sytravon Library Screen; details: yeast TDP-43 toxicity rescue, BacTiter-Glo growth, 24 h; growth rescue (activation): at 46.1 µM (top of the series); also: nearly all actives have a fitted effect of over 55% in size; as to growth rescue (activation): 0% is about no effect
Method in brief: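 TDP-43-expressing yeast, pregrown in raffinose, seeded at OD600 0.02 in galactose medium with compound for 24 hr at 30 deg C. Growth read by BacTiter-Glo luminescence, so rescue of toxicity appears as activation.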
Potency is read from the fitted curve at half-maximal effect; tags tell the direction and shape of the fitted curve.

Row | Compound | Potency | growth rescue (activation)
1 | C=CCNC(=O)/C(C#N)=C\c1cc(Cl)c(OCC)c(OC)c1 | inconclusive: 20 µM [activator, single point] | 
2 | NC(=O)CSc1nc2cc(Cl)ccc2c(=O)n1C1CCCCC1 | inconclusive: 12.6 µM [activator, partial curve, poor fit] | 
3 | NNC(=S)NCc1ccccc1 | inconclusive: 35.5 µM [activator, single point] | 
4 | CC(=O)N(CCC1(c2ccc(C)cc2)CCOC(C(C)C)C1)Cc1ccco1 (stereo not drawn) | inconclusive: 12.6 µM [activator, partial curve] | 
5 | COc1ccccc1N1CCN(c2cnccn2)CC1 |  | inactive: 13.1%
6 | COc1cc([N+](=O)[O-])cc(/C=N/NC(=O)CSc2ccccn2)c1O | inconclusive: 12.6 µM [activator, partial curve, poor fit] | 
7 | COc1ccccc1-c1cnn2c(N3CCOCC3)cc(C)nc12 | inconclusive: 11.2 µM [activator, partial curve] | 
8 | Cn1cccc1-c1nc2ccc([N+](=O)[O-])cc2[nH]1 | inconclusive: 12.6 µM [activator, single point] | 
9 | Cc1nc(-c2cccc(S(=O)(=O)N3CCCCCC3)c2)cs1 | inconclusive: 12.6 µM [activator, single point] | 
10 | CNc1cccc(-c2ccccc2C(C)=O)n1 |  | inactive: 6.06%
11 | O=C(COC(=O)C1c2ccccc2Oc2ccccc21)Nc1ccc2c(c1)OCO2 | inconclusive: 22.4 µM [activator, single point] | 
12 | COc1ccc(/C(C)=N/NC(=S)NCCc2ccccc2)cc1 | inconclusive: 22.4 µM [activator, partial curve, poor fit] | 
13 | CC(=O)Nc1cc(C(=O)N2CCc3ccccc3C2)ccc1Sc1ccc(C)cc1 | inconclusive: 15.8 µM [activator, single point] | 
14 | CCc1c(C)c2ccc(O)c(CN3CCN(c4ccccc4)CC3)c2oc1=O |  | inactive: 0.663%
15 | O=C(CSc1n[nH]c(=O)[nH]c1=O)c1ccc([N+](=O)[O-])cc1 | inconclusive: 10 µM [activator, partial curve, poor fit] | 
16 | O=S(=O)(c1cccs1)N1CCC(CO)(Cc2ccc(Cl)cc2)CC1 | inconclusive: 35.5 µM [activator, single point] | 
17 | Cc1cccc(N2C(=O)CC(Sc3ccccc3C(=O)O)C2=O)c1 (stereo not drawn) | inconclusive: 3.55 µM [activator, partial curve, poor fit] | 
18 | CCc1sc(C(=O)NCc2ccccc2)cc1C | inconclusive: 22.4 µM [activator, partial curve, poor fit] | 
19 | COc1cc(NC(=O)C2CCCC2)c(OC)cc1Cl | inconclusive: 11.2 µM [activator, single point] | 
20 | Cc1cc(N)n(-c2ccc(S(=O)(=O)N3CCCC3)cc2[N+](=O)[O-])n1 | inconclusive: 35.5 µM [activator, single point] | 
21 | CCCN(C(=O)Cc1coc2cc(OC)ccc12)C1CCS(=O)(=O)C1 (stereo not drawn) |  | inactive: -6.78%
22 | Cc1ccc(NC(=O)c2cc(C)n(-c3ccccc3)c2C)cc1 | inconclusive: 17.8 µM [activator, partial curve, poor fit] | 
23 | Cc1cccc(NC(=S)NCc2ccc(F)cc2)c1 | inconclusive: 15.8 µM [activator, partial curve, poor fit] | 

Row | Compound | Potency | growth rescue (activation)
24 | O=C(CSCc1ccc(F)cc1)Nc1ccc(F)cc1 | inconclusive: 25.1 µM [activator, single point] | 
25 | O=C1C(Cl)=C(NCc2cccnc2)C(=O)c2ccccc21 | inconclusive: 11.2 µM [activator, partial curve, poor fit] | 
26 | O=[N+]([O-])c1ccc2nc(-c3ccccn3)[nH]c2c1 | inconclusive: 35.5 µM [activator, single point] | 
27 | COc1ccc(SCCCn2c(=O)c3c(ncn3C)n(C)c2=O)cc1 | inconclusive: 35.5 µM [activator, single point] | 
28 | CCc1sc(C(=O)Nc2ccc(F)cc2C)cc1C | inconclusive: 35.5 µM [activator, partial curve, poor fit] | 
29 | Clc1ccc(N/N=C/c2cccnc2)cc1 | inconclusive: 2.82 µM [activator, full curve, poor fit] | 
30 | Cc1ccc(O)c(C(CC(=O)NCC2(c3ccccc3)CCCC2)c2ccccc2)c1 (stereo not drawn) |  | inactive: -0.213%
31 | Cc1ccc(NC(=O)Nc2nnc(N(CC(C)C)CC(C)C)s2)cc1Cl |  | inactive: 7.14%
32 | CN(Cc1c(F)cccc1Cl)C(=O)c1ccc2ccccc2n1 | inconclusive: 11.2 µM [activator, partial curve, poor fit] | 
33 | OC(c1ccccc1)(c1nc(-c2ccc(F)c(Cl)c2)cs1)C(F)(F)F (stereo not drawn) |  | inconclusive: -93.1% [activator]
34 | Cc1ccc(CNC(=O)c2cc(COc3c(F)cccc3F)on2)s1 | inconclusive: 14.1 µM [activator, partial curve, poor fit] | 
35 | CC(C)c1ccc(NC(=O)c2cc3c(s2)-c2ccccc2SC3)cc1 |  | inactive: 2.41%
36 | CC(=O)Nc1cc(C(=O)N2CCc3ccccc3C2)ccc1Sc1ccc(F)cc1 | inconclusive: 31.6 µM [activator, single point] | 
37 | CN(C)/C=C/C(=O)c1ccc([N+](=O)[O-])c(CS(=O)(=O)c2ccccc2)c1 | inconclusive: 12.6 µM [activator, partial curve, poor fit] | 
38 | Cc1ccc(-c2cc(C(=O)Nc3ccc(S(=O)(=O)Nc4ncccn4)cc3)[nH]n2)c(O)c1C | inconclusive: 35.5 µM [activator, single point] | 
39 | COc1ccc(-c2csc(C(O)c3ccc(OC)cc3)n2)cc1 (stereo not drawn) |  | inconclusive: 71.7% [activator]
40 | O=C(NCc1ccc(F)cc1)C1CCN(S(=O)(=O)c2ccc(Br)s2)CC1 | inconclusive: 17.8 µM [activator, partial curve, poor fit] | 
41 | Cc1ccc(C(=O)N2CCN(c3cccc(C)c3C)CC2)cc1S(=O)(=O)N1CCOCC1 | inconclusive: 20 µM [activator, single point] | 
42 | CC1(C)CC(=O)C(N=Nc2cccnc2)=C(O)C1 | inconclusive: 28.2 µM [activator, single point] | 
43 | CCOc1ccc(S(=O)(=O)N2CCN(c3ccccc3)CC2)c2cccnc12 | inconclusive: 11.2 µM [activator, partial curve, poor fit] | 
44 | CCc1ccccc1NC(=S)N(CCOC)C(C)c1ccco1 (stereo not drawn) | inconclusive: 35.5 µM [activator, single point] | 
45 | CC(C)c1nc2sc3c(c2c(=O)n1N)CC(C)(C)OC3 |  | inactive: 20.6%
46 | C=CCOc1c(Br)cc(/C=N/O)cc1OCC | inconclusive: 14.1 µM [activator, partial curve, poor fit] | 

Row | Compound | Potency | growth rescue (activation)
47 | Cc1ccc(N=C2SC(C(=O)NCCc3ccccc3)CC(=O)N2C)cc1C (stereo not drawn) | inconclusive: 15.8 µM [activator, single point] | 
48 | COc1cc(OC)cc(C(=O)NCC(=O)Nc2ccc(-c3ccccc3)cc2)c1 | inconclusive: 11.2 µM [activator, partial curve, poor fit] | 
49 | Nc1nc2c(nc(SCc3ccccc3Br)n2[C@@H]2O[C@H](CO)[C@@H](O)[C@H]2O)c(=O)[nH]1 |  | inactive: 16.9%
50 | O=c1c(N2CCc3ccccc3C2)csc2ccc(F)cc12 | inconclusive: 7.08 µM [activator, full curve] | 
51 | Cc1nn(-c2ccccc2)c(N)c1Sc1ccc([N+](=O)[O-])cc1 | active: 14.1 µM | 
52 | Cc1cc(C)cc(N(CC(=O)NC2CCCC2)C(=O)CCC(=O)Nc2nccs2)c1 |  | inactive: 4.02%
53 | Cc1ccc(CC2(C)C(=O)Nc3c(Cl)cccc32)cc1 (stereo not drawn) | active: 8.91 µM | 
54 | O=C(Cc1csc2ccccc12)NCc1ccc(F)cc1 | inconclusive: 17.8 µM [activator, partial curve, poor fit] | 
55 | CC(C)=NNc1nc(-c2ccccc2)c(C)s1 |  | inactive: 27.7%
56 | COc1ccc(C2c3ccc(O)cc3Oc3ncn4nc(-c5cccnc5)nc4c32)cc1OC (stereo not drawn) |  | inactive: -3.62%
57 | Cc1occc1C(=O)OCC(=O)Nc1ccc(F)cc1 | inconclusive: 11.2 µM [activator, partial curve] | 
58 | Cc1cc2ccccn2c1C(=O)c1ccc(C#N)cc1 |  | inactive: 18.2%
59 | CC(C)[C@H](NS(=O)(=O)c1ccccc1)C(=O)OCc1cc([N+](=O)[O-])cc2c1OCOC2 |  | inactive: 2.92%
60 | O=C1SC(SC(=Nc2ccccc2)Nc2ccccc2)C(=O)N1c1ccccc1 (stereo not drawn) | inconclusive: 17.8 µM [activator, partial curve, poor fit] | 
61 | CC(=O)NC(C)(c1ccccc1)c1nc(-c2csc3ccccc23)cs1 (stereo not drawn) |  | inconclusive: 70.6% [activator]
62 | O=C(N/N=C/c1cccc(Oc2ccccc2)c1)c1cc[n+]([O-])cc1 | inconclusive: 11.2 µM [activator, single point] | 
63 | CN(C)c1cccc(C(=O)NNC(=O)CSc2ccccc2)c1 |  | inactive: 1.83%
64 | COc1ccc(C(O)c2nc(-c3cccc(O)c3)cs2)cc1 (stereo not drawn) |  | inconclusive: 43.5% [activator]
65 | O=[N+]([O-])c1ccc(/C=N/NC(=S)Nc2ccccc2C(F)(F)F)o1 | inconclusive: 12.6 µM [activator, partial curve] | 
66 | CSCc1c(C(=O)NCCc2ccccn2)oc2ccccc12 | inconclusive: 12.6 µM [activator, partial curve, poor fit] | 
67 | Fc1ccccc1N1CCN(c2cnc3ccccc3n2)CC1 | inconclusive: 15.8 µM [activator, partial curve, poor fit] | 
68 | CCOc1ccc(/C=N/OCC(=O)NCc2ccc3c(c2)OCO3)cc1OC | inconclusive: 35.5 µM [activator, partial curve, poor fit] | 
